Data published in publication PMC6919601, “Identification of Plasmodium dipeptidyl aminopeptidase allosteric inhibitors by high throughput screening” (PLoS ONE, 2019).
Several values for one entry are separate records, joined by “and”; a condition that tells them apart may be missing. Equal values may be shown once. Hit rate of the full screen: of about 110,000 compounds, about 230 (0.21%) showed an effect of 50% or more. Some of the results follow.

The molecules below were run against DPAP1 (Plasmodium falciparum, UniProt Q8IIJ9) (assay: primary screen, percent inhibition; read by cleavage of a fluorogenic dipeptide substrate; higher = more effect of the substance).
Design: species or system P. falciparum D10 trophozoite lysates; single well
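Further: 30 min substrate incubation versus DMSO and 10 µM JCP410 controls.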

Sequence of DPAP1 (Q8IIJ9 whole entry, looked up): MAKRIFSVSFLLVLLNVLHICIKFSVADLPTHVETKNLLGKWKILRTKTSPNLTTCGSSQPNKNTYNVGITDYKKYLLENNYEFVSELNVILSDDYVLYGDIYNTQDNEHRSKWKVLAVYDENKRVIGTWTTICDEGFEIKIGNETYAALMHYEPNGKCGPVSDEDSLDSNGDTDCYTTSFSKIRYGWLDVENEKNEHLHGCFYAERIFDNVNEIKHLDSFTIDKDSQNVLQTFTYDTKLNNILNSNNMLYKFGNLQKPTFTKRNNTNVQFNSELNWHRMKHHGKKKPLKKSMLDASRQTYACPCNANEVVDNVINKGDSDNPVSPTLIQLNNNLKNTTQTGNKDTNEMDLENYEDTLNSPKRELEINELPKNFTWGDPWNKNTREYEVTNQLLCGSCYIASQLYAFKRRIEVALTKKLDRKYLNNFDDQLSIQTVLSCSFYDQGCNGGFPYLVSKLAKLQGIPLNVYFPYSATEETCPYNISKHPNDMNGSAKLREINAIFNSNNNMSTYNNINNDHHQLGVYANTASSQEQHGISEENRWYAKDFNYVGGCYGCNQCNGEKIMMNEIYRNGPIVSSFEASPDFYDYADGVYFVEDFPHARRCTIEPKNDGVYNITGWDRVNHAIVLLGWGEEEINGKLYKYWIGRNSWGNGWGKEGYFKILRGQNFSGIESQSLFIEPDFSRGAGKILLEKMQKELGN

Row | SMILES | % Inhibition @ 10 uM
1 | OC1=C2C(=Nc3nc4ccccc4n3C2c2cccnc2)CC(c2ccc(Cl)cc2)C1 (centres unmarked) | 6.64%
2 | COc1ccc(C(=O)Nc2ccc(C(=O)c3ccccc3)cc2)cc1 | -1.28%
3 | Cc1sc2nc(-c3cccs3)nc(O)c2c1C | 0.392%
4 | OC(CNCC1COc2ccccc2O1)COc1ccccc1 (centres unmarked) | 1.15%
5 | COc1nc2c(C)cccc2cc1-c1noc(-c2ccc(C)cc2)n1 | 1%
6 | O=C(NCCc1ccccc1)C1COc2ccccc2O1 (centres unmarked) | -6.3%
7 | CC(=O)Nc1ccc(N/C=C(/C#N)c2nc(-c3ccc4c(c3)OCO4)cs2)cc1 | -1.64%
8 | CCCCOc1ccccc1C1C(C(=O)OCC)=CN(C(C)C)C=C1C(=O)OCC | -1.48%
9 | CCN(CC)C(=O)CSc1nc2nnc(C)c-2c(N)n1-c1ccc(Cl)c(C)c1 | 8.71%
10 | COc1cc2c(cc1OC)C(c1ccc(Br)cc1)NCC2 (centres unmarked) | 1.66% and 7.66%
11 | COc1cccc(/C=C(\C#N)C(=O)NCCc2ccccc2Cl)c1OC | -2.21%
12 | COc1ccc(-c2noc(-c3nnn(-c4cc(Cl)ccc4C)c3N)n2)cc1 | -1.04%
13 | c1ccc(CSc2nc3ccccc3n2Cc2ccccn2)cc1 | 1.31%
14 | CN(C)CCn1c(NC(=O)c2ccc(Cl)cc2)nc2ccccc21 | 0.751% and -1.88%
15 | COc1ccc(N(CC(=O)Nc2ccc(C)cc2C)S(C)(=O)=O)cc1Cl | 3.17%
16 | CC(C)c1ccc(OCC(O)CN2CCN(Cc3ccc4c(c3)OCO4)CC2)cc1 (centres unmarked) | -11.6%
17 | COc1cccc(NC(=O)c2cccc(F)c2)c1 | -2.03%
18 | O=C(c1cc2ccccc2cc1O)N1CCCCC1 | -2.04%
19 | Cc1ccc(CC(=O)Nc2ccc(S(=O)(=O)NC(C)(C)C)cc2)cc1 | -4.33%
20 | O=C1NC(=O)N(c2ccccc2)C(=O)/C1=C\Nc1ccc2[nH]c(O)nc2c1 | 2.36%
21 | O=C(Nc1ccc(S(=O)(=O)N2CCCCCC2)cc1)C(F)(F)F | 2.85%
22 | COc1ccc(N(CC(O)CN2CCC(C)CC2)S(=O)(=O)c2ccc(C)cc2)cc1 (centres unmarked) | -0.63%
23 | CCN(CC)C(=O)c1ccc(COc2ccccc2Cl)o1 | 2.05%
24 | Cc1cc(C)c(Cn2c3ccccc3c3cnn(CC(=O)N4CCOCC4)c(=O)c32)c(C)c1 | -3.35%
25 | CCOc1ccccc1C(=O)Nc1nnc(COC)s1 | -1.52%

Row | SMILES | % Inhibition @ 10 uM
26 | CC(C)NC(=O)c1cn(C2CCCC2)c(=O)c2c1c1ccccc1n2C | -5.27%
27 | COCCCNC(=O)C1CCN(c2nnc(C)c3c(C)n(-c4ccc(C)cc4)nc23)CC1 | 0.361%
28 | CCOc1ccc(-c2[nH]c3c(C(=O)OC)cnn3c2NC2CCCCC2)cc1OC | -0.519%
29 | COc1ccc(/C=N/n2c(S)nnc2C(F)(F)F)cc1O | -3.04%
30 | O=C(c1ccc(NS(=O)(=O)c2cccc(F)c2)cc1)N1CCCC1 | 4.42%
31 | CCN(CC)CCSCCOC(=O)c1oc2ccccc2c1C | 4.01%
32 | Clc1cccc(CN2CCc3c([nH]c4ccccc34)C2)c1Cl | -3.13%
33 | C/C(O)=C\c1nc2ccccc2nc1O | 5.48%
34 | COc1cccc(/C(O)=C/C=N/c2ccccc2OC)c1 | 2.44%
35 | Cc1ccc(NS(=O)(=O)c2ccc(F)cc2)c(NS(=O)(=O)c2ccc(F)cc2)c1 | 0.331%
36 | Cc1ccnc(N2C(=O)c3ccc(C(=O)O)cc3C2=O)c1 | -0.173%
37 | C=CCNc1oc(Cc2cccc3ccccc23)nc1C#N | 5.18%
38 | CC(C)NC(=O)N1CCN(c2ccncc2S(=O)(=O)N2CCOCC2)CC1 | -1.51%
39 | O=C(CN1C(=O)c2ccccc2S1(=O)=O)NCC1CCCO1 (centres unmarked) | -6.49%
40 | C=CCSc1nc(N)c(C#N)c(CC)c1C#N | 65.5%
41 | CC(=O)N(c1ccc2oc3c(c2c1)CCCC3)S(=O)(=O)c1ccc(C)cc1 | -7.69%
42 | O=S(=O)(c1cccc(C(F)(F)F)c1)N1CCC(N2CCCCC2)CC1 | 1%
43 | Cc1nn(C)c(C)c1CN(C)C(=O)c1cc2nc(-c3ccccc3)cc(C(F)(F)F)n2n1 | 1.02%
44 | O=C(Nc1nc2ccccc2[nH]1)c1ccccc1F | 2.85%
45 | CCC(C)[C@H](NC(=O)c1cccc(CN)c1)C(=O)N[C@@H](CCc1ccccc1)C(=O)CNS(=O)(=O)c1ccc2oc3ccccc3c2c1 (some centres unmarked) | 7.72%
46 | CCOc1ccccc1N1CCN(Cc2ccc(OC)c(Br)c2)CC1 | -6.36%
47 | O=C(Nc1ccc(Br)cc1C(=O)O)c1ccc(N2C(=O)c3ccccc3C2=O)cc1 | 8.26%
48 | COC(=O)C1=C(C)N(C)C(C)=C(C(=O)OC)C1c1ccc(OCc2ccccc2)cc1 | 6.12%
49 | C=C(C)CNC(=S)Nc1ccccc1 | -1.05%
50 | N#Cc1c(-c2cccs2)cc(-c2cccnc2)nc1N | -1.33%
